According to WO2010064089A1:

B1: [224G11][TH7 Hz1] (antibody)
heavy: QVQLVQSGAEVKKPGASVKVSCKASGYIFTAYTMHWVRQAPGQGLEWMGWIKPNNGLANYAQKFQGRVTMTRDTSISTAYMELSRLRSDDTAVYYCARSEITTEFDYWGQGTLVTVSSASTKGPSVFPLAPSSKSTSGGTAALGCLVKDFPEPVTVSWNSGALTSGVHTFPAVLQSSGLYSLSSVVTVPSSSLGTQTYICNVNHKPSNTKVDKRVEPKSCDCH[human IgG1 Fc not listed]
light: DIVLTQSPDSLAVSLGERATINCKSSESVDSYANSFMHWYQQKPGQPPKLLIYRASTRESGVPDRFSGSGSRTDFTLTISSLQAEDVAVYYCQQSKEDPLTFGGGTKVEIKRTVAAPSVFIFPPSDEQLKSGTASVVCLLNNFYPREAKVQWKVDNALQSGNSQESVTEQDSKDSTYSLSSTLTLSKADYEKHKVYACEVTHQGLSSPVTKSFNRGEC
B2: [224G11][TH7 Hz2] (antibody)
heavy: B1 heavy
light: B1 light with L4M, R72G
B3: [224G11][TH7 Hz3] (antibody)
heavy: B1 heavy
light: B1 light with L4M, M37L, R72G

The binders below were run against C-Met-Rluc expressed with a mutated form of Gab1 fused to YFP in a CHO stable cell line (c-Met activation BRET model) (R. reniformis), P08581 (assay: cell-based or functional assay).
B1 gave an inhibition of HGF induced BRET signal, c-Met activation model of 59.9%.
B2 gave an inhibition of HGF induced BRET signal, c-Met activation model of 41.8%.
With B3 the inhibition of HGF induced BRET signal, c-Met activation model was 57.9%.

These binders were tested against C-Met-Rluc and C-Met-K1100A-YFP co-expressed in a CHO stable cell line (c-Met dimerization BRET model) (R. reniformis), P08581 (assay: cell-based or functional assay).
With B1 the inhibition of HGF induced BRET signal, c-Met dimerization model was 52.2%.
B2 was tested, and the inhibition of HGF induced BRET signal, c-Met dimerization model was 35.8%.
With B3 the inhibition of HGF induced BRET signal, c-Met dimerization model was 49.4%.

Changes are numbered by the printed parent chain.
